# In paper PMC12040169 (PLOS Biology, 2025):
# The other results are listed elsewhere or left out.
# Tested on: T1, C. trachomatis L2/434/Bu expressing GFP (CTL2-GFP)
# T1 construct: L2/434/Bu GFP intracellular growth in HeLa cells
# Design: species or system HeLa; C. trachomatis total inclusion area by high-content imaging, normalised to DMSO
# Settings: total inclusion area; 28.5 h, 10 µM; inhibitor
# Summary of the method: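 Bulk GFP and resorufin signals were read first. Wells were then fixed, stained with Hoechst and imaged to detect GFP inclusions and host nuclei. MICs followed the previously described calculation.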
row,Structure (SMILES),% of control remaining
1,CC(C)(C)c1cc(C(=O)NCCN)n(Cc2ccc(Cl)cc2Cl)n1 [CBK116631T],56.4761
2,O=C(O)c1cccc(Cn2ccc3c(F)cccc32)c1 [CBK003453],128.177
3,O=c1[nH]c2ncc(-c3ccc(OC(F)(F)F)cc3)nc2n1Cc1ccc(Cl)cc1 [CBK064409],100.594
4,CN1CCN(c2nccnc2-c2ccccc2)CC1 [CBK088825],102.75
5,Cc1sc2nc(SCC(=O)c3c[nH]c4ccccc34)nc(O)c2c1C [CBK264068],114.764
6,O=C1CCC(C(=O)N2CCCC(c3cc4ccccc4cn3)C2)CC1 (stereo not shown) [CBK284989],105.986
7,CC(=O)Nc1cccc(NC(=O)CN(C)S(=O)(=O)c2ccc(F)cc2)c1 [CBK269951],73.7377
8,Cc1ccc(Sc2nccn3c(=O)[nH]nc23)c(C)c1 [CBK288055],85.8707
9,CN(C)CC1CN(C(=O)Cc2ccccc2F)Cc2ccccc2O1 (stereo not shown) [CBK285327],84.2744
10,CC1CN(S(=O)(=O)C(C)C)CCC1NCc1ccncc1 (stereo not shown) [CBK304870],62.5872
11,Cc1csc(Sc2nccc(C(F)(F)F)n2)n1 [CBK093770],80.944
12,Cc1ccc(S(=O)(=O)N2CCN(CCCc3ccccc3)CC2)cc1 [CBK263453],91.914
13,CN(C)CC(=O)N1c2ccccc2CCc2ccc(NC(=O)c3ccccc3)cc21 [CBK261289C],105.554
14,CN(C)c1ccc(Nc2cc(-c3ccco3)ncn2)cc1 [CBK090946],115.489
15,c1cc(CSc2nnc(-c3ccncc3)o2)ccn1 [CBK270235],90.1777
16,CN(C(=O)c1ccccn1)C1CCN(c2ncnc3ccccc23)CC1 [CBK305346],80.1149
17,COc1ccc(C(=O)Nc2cccc(-c3nc4ccccc4[nH]3)c2)c(OC)c1 [CBK072662],72.116
18,Cc1ccc(Cl)cc1N1CCN(C(=O)COc2ccc(S(=O)(=O)Nc3ccc(F)cc3)cc2)CC1 [CBK268229],96.2528
19,CC(Cc1nc(-c2nccn2C)cs1)n1cc(Cl)cn1 (stereo not shown) [CBK304114],4.5059
20,CC(=O)c1cccc(NC(=O)/C(=C\c2cccnc2)NC(=O)c2ccc(C)cc2)c1 [CBK262456],87.6334
21,Cc1ccccc1N1CCN(Cc2cccc(C(=O)O)c2)CC1 [CBK286890],104.449
22,O=C(c1ccccc1)c1ccc(S(=O)(=O)N2CCN(Cc3ccc(O)c(F)c3)CC2)cc1 [CBK062948],85.1506
23,Cc1cc(=O)oc2cc(NC(=S)N3CCN(C/C=C/c4ccccc4)CC3)ccc12 [CBK267045],117.281
24,O=C(Nc1ccccc1)O[C@@H]1CO[C@H]2[C@@H]1OC[C@@H]2NC(=O)C1CC1 [CBK289464],98.7415
25,Cc1ccnn1C(C)C(=O)NC(Cc1ccsc1)c1nccs1 (stereo not shown) [CBK285141],93.4725
26,O=C(O)CCc1nn2c3ccccc3n(CC(=O)c3cccs3)c2nc1=O [CBK267518],102.517
27,CC(NC1CCN(Cc2ccccc2)CC1)C12CC3CC(CC(c4ccc(Cl)cc4)(C3)C1)C2 (stereo not shown) [CBK262877],13.4131

row,Structure (SMILES),% of control remaining
1,Cc1ccc(C)c(-c2nn(-c3ccccc3)cc2/C=C2\SC(=S)N(CC(=O)O)C2=O)c1 [CBK264541],107.808
2,CC(C)(C)OC(=O)NCC(N)=S [CBK007979],109.382
3,CS(=O)(=O)Nc1cc2ccccc2c(-c2cccc(C(F)(F)F)c2)n1 [CBK085754],87.2815
4,CCOC(=O)Cn1nc([N+](=O)[O-])c(Cl)c1C [CBK269605],73.989
5,Clc1ccc(COc2nccnc2OC2CCN(Cc3ccc4c(c3)OCO4)CC2)cc1Cl [CBK083109T],57.7432
6,CN1C[C@]2(CC[C@@H](C(=O)N3CCCC3)CC2)Oc2ccccc2C1=O [CBK284886],107.436
7,N=C1NC(=O)/C(=C/c2ccc(OS(=O)(=O)c3ccc4ccccc4c3)cc2)S1 [CBK263605],96.7054
8,COc1ccc(NC(=O)N[C@H]2C[C@@H](c3nc(-c4ccc(OC)cc4)no3)N(C)C2)cc1 [CBK288862],119.889
9,CC(NC(=O)CN(c1ccc(Cl)c(Cl)c1)S(=O)(=O)c1ccccc1)c1ccccc1 (stereo not shown) [CBK263781],101.304
10,Cc1ccn2cc(CNC(=O)CN3CCOc4ccccc4C3)nc2c1 [CBK307518],79.8334
11,CCC1C(=O)NCCN1C(=O)c1ccc2c(c1)ncn2C (stereo not shown) [CBK281709],96.8085
12,S=C(Nc1cccnc1)N[C@H]1CC[C@@]2(c3cccnc3)CCN(Cc3ccccc3)[C@H]2C1 [CBK028450],103.669
13,Cc1cc2c(s1)c1cnn(CC(=O)NCC3CC3)c(=O)c1n2C [CBK284222],72.4405
14,Cn1nc(C(F)(F)F)cc1C1CCCCCN1S(C)(=O)=O (stereo not shown) [CBK284673],99.6094
15,Nn1cnn2c(SCc3ccccc3)nnc12 [CBK263188],59.0942
16,Cc1c(C(=O)N2CCC(F)(CO)C2)nnn1-c1ccc2ncccc2c1 (stereo not shown) [CBK304483],107.789
17,COc1ccc(CN2C(=O)COC[C@@H]2[C@H](O)c2ccc(NC(C)=O)cc2)cc1 [CBK289674],124.589
18,O=S(=O)(c1ccccc1)N1CCN(c2cnccn2)CC1 [CBK287839],89.3691
19,COCCCN(Cc1ccc(F)c(F)c1)Cc1ccccn1 [CBK282961],118.327
20,COCCn1c(CN2Cc3ccc(Cl)cc3C2=O)nnc1[C@H]1C[C@@H](N)C1 [CBK307289],50.6538
21,O=c1[nH]nc2ccc(S(=O)(=O)N3CCCCC3)cn12 [CBK288459],71.6627
22,Cc1ccc(CNC(=O)Cn2nnc(-c3ccc(CNCC(F)(F)F)cc3)n2)cc1 [CBK153204T],78.5375
23,Oc1cccc2ccc(/C=N/N=C/c3ccc4cccc(O)c4n3)nc12 [CBK261127],110.687
24,CC(C)CCNC(=O)N1CCC(C(=O)O)CC1 [CBK156075],93.3498
25,COc1ccc(C(=O)NC(=S)Nc2ccc(O)c(-c3nc4cc(C)c(C)cc4o3)c2)cc1[N+](=O)[O-] [CBK264039],87.6161
26,O=C(CO)N1CC2(CCN(Cc3ccc4ccccc4c3)CC2)c2ccccc21 [CBK131501],74.7656
27,Cc1cc(C=O)c(O)c(/C=N/CC/N=C/c2cc(C)cc(C=O)c2O)c1 [CBK262149],100.224

row,Structure (SMILES),% of control remaining
1,c1ccc2c(-c3ccc(OC4CCNCC4)cc3)cncc2c1 [CBK126578],91.214
2,CCCN1CCN(C(=O)c2cnc(C)cn2)C(Cc2cccc(-c3cccs3)c2)C1=O (stereo not shown) [CBK285678],85.5589
3,NS(=O)(=O)c1ccc(NC(=O)/C=C/c2cccc([N+](=O)[O-])c2)cc1 [CBK261616],98.1001
4,N#C/C(=C\c1ccc(-c2ccc(S(N)(=O)=O)cc2)o1)c1nc2ncc(Br)cc2[nH]1 [CBK266288],138.176
5,Cc1ccn2cc(-c3ccc4c(c3)CCN4S(C)(=O)=O)cc2c1 [CBK285252],108.437
6,O=C(c1ccc(F)cc1)N1CCN(c2ccc(Nc3ccncc3)nn2)CC1 [CBK287836],93.8898
7,O=C(NCc1ccccn1)c1cc(-c2ccc(Cl)cc2)[nH]n1 [CBK116549],89.2258
8,O=S1(=O)CCC(c2nnc(C3(c4ccc(Br)cc4)CCOCC3)o2)C1 (stereo not shown) [CBK305513],84.8418
9,NS(=O)(=O)c1ccc(NC(=O)C2Cc3ccccc3CN2S(=O)(=O)c2ccc(F)cc2)cc1 (stereo not shown) [CBK265208],110.498
10,Cn1ccnc1C1(O)CCN(C(=O)Nc2ccc(F)cc2)CC1 [CBK282277],89.2938
11,O=C(CCN1CCCCC1)N1CCc2ccccc21 [CBK200413],94.8047
12,COc1ccc(C(NC(=O)c2cc3ccccc3[nH]2)C2CC2)cc1 (stereo not shown) [CBK297896],88.9529
13,O=C(COc1ccc(S(=O)(=O)NC2CCCCC2)cc1)N1CCN(c2cccc(Cl)c2)CC1 [CBK265948],85.8439
14,CC(=O)N1CCC(n2c(C3CC3)nc3sc(C)c(C)c3c2=O)CC1 [CBK282369],76.5857
15,O=C(Nc1ccsc1C(=O)O)c1ccc(Cl)cc1 [CBK076902],104.186
16,Cc1cc(Br)ccc1C(=O)NCCc1c[nH]c2ccc(Cl)cc12 [CBK159771],39.7987
17,Cc1nc(N)sc1-c1csc(Nc2ncccn2)n1 [CBK263307B],89.9291
18,CC(N)C(=O)Nc1ccccc1-c1ccccc1 (stereo not shown) [CBK267700],104.322
19,COC(=O)c1ccc(NC(=O)c2ccc(-n3cccn3)cc2)cc1 [CBK269486],81.372
20,CC(=O)c1cc(C(=O)N2CCC(O)(c3cccc(C)c3)CC2)cs1 [CBK282531],65.3738
21,CC(=O)Cc1c(C(=O)O)c(C)nn1-c1ccccc1 [CBK286779],79.7234
22,N#CCCSCc1ccc(C(=O)O)o1 [CBK265858],55.6621
23,COc1ccc(OC(C)C(=O)Nc2ccccc2-c2ccccc2)cc1 (stereo not shown) [CBK266661],95.3464
24,CCNC(=O)O[C@@H]1CO[C@H]2[C@@H]1OC[C@@H]2NS(=O)(=O)c1ccccc1C#N [CBK289474],116.199
25,Cc1cc(NC(=O)CCCc2ccccc2)nc2c1c(=O)oc1ccccc12 [CBK291204],105.344
